# This is one part of the list. At the low end of the ranking the order means little. Measured with an extract: partners may take part in the binding.
# Molecular target: T1, HNF4alpha8 (COS-7 nuclear extract) (UniProt P41235-5)
# T1 sequence: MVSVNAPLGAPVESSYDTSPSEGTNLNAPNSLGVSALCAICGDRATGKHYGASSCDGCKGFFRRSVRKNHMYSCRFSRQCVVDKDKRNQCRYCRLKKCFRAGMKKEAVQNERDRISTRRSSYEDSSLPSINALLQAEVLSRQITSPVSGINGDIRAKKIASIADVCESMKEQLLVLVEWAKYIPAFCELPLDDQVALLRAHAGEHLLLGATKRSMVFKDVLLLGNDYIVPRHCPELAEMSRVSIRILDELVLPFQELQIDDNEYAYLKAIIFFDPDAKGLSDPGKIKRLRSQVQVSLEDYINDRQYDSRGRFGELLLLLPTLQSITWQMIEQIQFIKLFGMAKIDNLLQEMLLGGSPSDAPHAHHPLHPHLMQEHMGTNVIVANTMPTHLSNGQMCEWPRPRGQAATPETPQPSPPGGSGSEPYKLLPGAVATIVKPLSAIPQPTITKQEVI
# Assay: protein-binding microarray
# Conditions: COS-7 nuclear extract on double-stranded Agilent 4x180k PBM; binding buffer, salt, pH and temperature not given; high values mean tight binding; double strand, one strand shown; sequences stand for … in …GCCTAGGGAGATTAGAGTATCGGTCGA
row,Sequence,binding signal (log2 normalized intensity)
1,TTCAGGGAGCGAATAAATACATAAAGTCCA,1.92
2,AGACACAAAAAGGCAAAGGTGTCAGGACCT,-1.31
3,ACCAAACAGAGAGAAAGCAGTGACCATCCC,-1.25
4,CCAGTGTGTTGTGCTGACCTCCTGTCTCAT,2.69
5,CATCTGGGCAAGGTGTCAACCTTCATTCTC,0.575
6,TCTTCACCTGCCCTGAGTCCAGCCTTCCTG,0.791
7,GGTGGACTGATAGGTGCGTGGGGGAGGGGC,-1.47
8,TACAAAATTTACTTTAAATACACCTAACCC,-0.792
9,GATCCCGAAAGCCGGTTCCCGCCCAAGGAG,-1.22
10,GTGGCCTTGCCATTGGAGGTCACCCTGTGT,2.7
11,GGGAAAACCTGACTGCGCTCCCAGAAGCCT,-1.28
12,GAATTCCACAGCAGAAGGCAACAGCTCTGG,-1.38
13,CCAACAAAAGAAAGCCCATTAAATCTTCCC,-1.33
14,GTCAAAAGGGGAAATATGTAGGTTTGGGGA,-1.34
15,AAAGTTTGGACTAGCCACAGGGGAAACACA,-1.39
16,TCTCCCAATCTCGAGATCATTTACATGTGT,1.62
17,TGTTCCACAGCAAGTAAATTCCGGGGCTGG,-1.21
18,TCATAATTTTGGACTTTGTGCAAATGGAAA,4.69
19,AGGCTTGCAATGCGGAATGACATTCAGCAA,-1.32
20,AAGTTGGAATTTGGGTGATCCTGGTAGCAG,0.514
21,TGGCTCTGAAAAACAAAATGCATTTCCTTA,-1.31
22,AGTGCACATTCCAGAGAAATAGTGAGACAG,-1.46
23,ACCCTGACCTGGCATATCTCTGTCCCTGAT,0.594
24,TCTGATCTTTGACTTCTAGTTCTTATCTCA,1.18
25,CACCTGAGTCCAGAGGTCAAGGCTGCAGCG,3.88

row,Sequence,binding signal (log2 normalized intensity)
1,TTTGAAATAGTGACCTCTGCTGGCCAGTGG,2.44
2,AACTGTAGTGCATAGTGGGTTTCGGTGTCA,1.15
3,AAATAATTACTTCTTGAAGCCACTTGCTTA,-1.03
4,AAGAGACTTTGCCCTTTTTTTCTCTCCCCT,3.92
5,GGGTAAAATGAGAATGAGACCTGCTAGGCT,-1.35
6,GCCCCAGTAAAACTGGAAAATCAAAGACTC,-1.23
7,TTGTATTTTGCCAAAGAGGTCTTATGCTCA,0.483
8,AATCCTTAAGCAGCAGATAAGGCTAATCCT,-1.21
9,TCACTTGTTTATCTGCTGCCCTTCCCTCCA,3.03
10,AAAGATCACACAAATGGATCTTTCTTCAAA,-1.32
11,TGCACTTTGACCGCTCATTTGATCCTCACA,4.61
12,TTGACCTTTAGAAGGTTATTAGTGATAAGC,3.79
13,AAGGTCACAGCACTGTTTATTTTGTGTGAT,1.64
14,CCATTTATAAGAAACTGCTCCTGCTTGGGA,-0.881
15,GGCTGATGACCTTTGACTGAGATGGGAGCA,4.58
16,CCAAGGAAGGGCAAACTCTAGCTGTCCTCC,-0.916
17,TCGTCCCTTCCCTCTGTCTTCAAAACCACA,0.59
18,TCCTGGAACTCTGACCTTTGCCCCCAGCCT,10.1
19,CACCTACTTGGGATGCTGAGGTGGGAGGAT,-0.834
20,CCACTAAGAAGCCCAAGGTTAAAATCACAA,-1.29
21,AACTGATTACTGCACCCCCTTCCCACCTGC,5.14
22,CCTTGACCCTTCCTCCCATTTGCTGCTCTA,1.81
23,AGCCGGCTCAAAATAGGCAAGACTGCCACC,-1.28
24,CTTGCAGGGGGCCTCCTGCCCCAGGAGCAG,-1.42
25,GGTCAAGAGGGCCTCTGCTTGTCTTGGTTG,0.598

row,Sequence,binding signal (log2 normalized intensity)
1,TTCCCTGCAGAAAAGGCCCCAGGGATTGCA,1.45
2,CTCACTCTAAAGGAAGGGATTATAAAGCTT,-1.42
3,AAGGTGAAGGAGAATATTAGATGATAAGGG,-1.32
4,GGCCAGTTTCTCCACAGCCTCACCAACAGG,-0.9
5,CTTTATCTAGATAAGTTTATTTACTTATGT,2.32
6,CACATTCCAGAACCAAGATTTACATCCTAT,-1.23
7,ATTTTCTCATCCCAGGGATAATGATAAAGA,-0.501
8,TTCCCTACCCCCTGGGAGTAACCTGCTTGT,2.25
9,AAGGTAGATACTATAATTAGAATCTGCAGG,-1.17
10,AGTCACACACACCTGTGTCCCCCAGGTCCA,3.56
11,CTCTGCAGGAGGACTGGATCAATGGATCCA,-1.27
12,TTTCTGTATCTAATCTCAGATATGCTAATT,-0.126
13,GGCCCCAGCAGGCCAGGCCAAATCAGAACT,-1.2
14,CCCGGCCAGCAGATGAGCCTGTTGGGAGCC,-1.38
15,ATCTTCCAGGCCTCCAGCTCTTTTGAACCC,4.31
16,TACCCGGCAAAGAATTGTGAGTCCAGTTGA,1.55
17,GAACGGAATGTGTGATAAGGAACTGTGTAA,0.721
18,TTTAATTATCATCTCTGTGTATAAGACTCT,0.682
19,ATCAGCAAGGGCATTTGCGTAGGCTGTCAG,0.124
20,ATAGGGTTCAAACTCCTATGTGAATCTAAT,1.78
21,GGATGGGGAGGGGGCAGGTAAGTACCAATA,-0.99
22,CACCTCGTCCAGGTGTCTTCAGGCTGGGGC,0.0763
23,GCAACCTTTGCTCTCCCTCCTCTCTGAGCA,2.28
24,TGAATCTAATGCCACCATTGATCTAACAGG,-1.28
25,AAGGAAATGGACAACGGAAAGACAGAGGTG,-1.31

row,Sequence,binding signal (log2 normalized intensity)
1,TCTCTGGCTGGTGGGCAAGTTATCTCGGGG,-0.0511
2,AGCCTCTTTATCTCTCTCTCTTTCTTCCCC,2.62
3,TTGACCTCTGCTAGGTTTGGGTAAGACTTA,3.09
4,AAAAATTGCCCCCGGGCACAGGGTTGAGTG,3.33
5,GCCTCCTGCTCTGGGCTTTCTCTGCCTCCA,-1.21
6,CTATGCAAACAGCGCTTATCTGGAAACTAT,-1.46
7,CGCTGCGCCACAGCACCACCTGCTGGTCAG,-1.22
8,ACCTCCCCTTTGTTTAACTTACTATCTGAG,0.861
9,GTTCTAGTAAGGCCTTCAAATGATTGGATG,0.45
10,AGGCCAATTACTTACATGGGTTAGGAGGAT,0.128
11,ACACTATCAGCTACTTCGGGACAAGAGGAA,-0.89
12,GTCTACAGGTCAGACCTGTTTCAAAACTAC,-0.457
13,CTTGTCTTATCAGCAGGGTCTTTTTGACCT,4.79
14,TTTGAACTGGGTCTTAATAAGATAATAAGT,1.45
15,CCAGACAGAGAGGTCAGCAAATGTGGACAC,1.81
16,GGCACAGTAACCTGACCCCCAGTGGAATGT,3.89
17,GGTAAGGGTGGGGGTGGGGAGGATAGCAGC,-1.12
18,TGGTGGGGAATGCTAGGACTCATTCTCCCC,0.175
19,CAAATAGCAGAAAATCCAGGTGCAGTGTGA,0.415
20,TGCCACATACCTTTAAACATTCTTCTCAGT,1.27
21,TTTGTGGGCCAAAAGCAGCCATTAAGAAGC,-1.3
22,GAGGCACCCATCCCTTTGCAATAAAAGATT,-0.0546
23,GCCCTTTGTATCTTTTAAGATACACTCTTT,2.69
24,GCTCCAGAGGAAGATATTATCTCTGTCTGT,-0.105
25,GCAGTGACCAAGGGTCAGTTTGAAATTAGG,3.09

row,Sequence,binding signal (log2 normalized intensity)
1,AATGACCTTTGTCCAGCTGTGCCGAGCCTG,4.91
2,AGGCCAATGAGGGAAGTTATTAACATCAAA,-1.31
3,CCAAAGTCTATGTGTGCTTTCTTCATTAAC,1.11
4,GGGAACCGGCAAGTCTGAAATCTACAGGAC,-1.27
5,CTGAGCAGGAATGTTTCCTCTCCCAGCCCC,3.3
6,GACCTCCACTTTGGAGGGGGAATTTATTTT,-1.18
7,GGGTTAAAAGCAAACCAAAAAGTTGGTTGG,-1.08
8,GCTAGGTGGCGGGCTGGCTCAGGACAGGTG,-0.886
9,AGACAGCCACTGTTTGACGACTGTCTGCCA,-1.25
10,GTGTGTGTGTGTGTGTGGTGTGTGTGTGTG,3.45
11,CCTCAAAGAGCATGGCGCCAGGGAGTGATT,-0.795
12,ACCAGGGCTAGACCCGTCAGCCCTGGTCCA,-1.1
13,CTTCGATCACCTCAAGAAAGAGGTGGTTCT,-1.22
14,TAAGATCCAAAGGAGTGGTCCTGCTCAAAG,-1.26
15,TTGTATAGCATGAACTACACAGATTCTGCA,-1.27
16,GTGGTGTAGAGGCCCTGCAGGGCCCCACAT,-1.12
17,CATGATTGTGGAGGATGGGAAGTCCAAAGT,3.91
18,ACATTTCCTTTTTGGCCAGCCCCGGGAATT,1.53
19,TTACACCTGTGTGTACTGGGCAGATAACAG,-0.168
20,ACTGAAAGAACACAGCGCAGCACACTGCAG,-1.26
21,AACTGACCTTGCAGGCCAGGGAGTGCAGCT,-1.09
22,GATGGGTCCACACAGCTGAATCCAAAGGTC,6.95
23,CTCATAAGAGACTTTGCCCTTTTTTTCTCT,4.7
24,AAATAGAGCAGCCTGGGGTAAAACCAAACT,-1.32
25,AGAGAGACCGTCCCTGGGTACAACTTTATC,1.35

row,Sequence,binding signal (log2 normalized intensity)
1,CAGGGAGTGCCCTTCCACTTAGGCTTGCAA,-1.12
2,CAAAGTGCATTGGAGGCCAGATGCCAACTG,-1.17
3,AATCAACTGCCCTCTGCCTTTCAGGCAGGA,-1.36
4,GCAATCTTCCAGTCCACAGTCCAGTGACTA,0.759
5,AATGGTCATTCTCTGTTGCATGGTTGACAT,1.61
6,AGGAGCCTCCAATCAGGACAGACTGGTTGA,-0.921
7,GCAAGGATCAGCCCCACACTCCTGGGCTGT,-1.46
8,CAAGGGGAATGTGGATGCTGGAATGAGGGA,-1.45
9,CAGAAACAAAGGGGGAGGGAGATAGAGAAA,-1.32
10,CCAGTGACTATCTGCTACTTAAGATAGAGG,0.373
11,TTTAGGAAGAGATCAAAGTTCTGTTTGTAT,3.39
12,ATCTGGTGGTGGTTCTTGTTTCATTGCACA,1.7
13,CAGCTGGTCACACTGCACCTGCCTGAACAA,-1.46
14,GGAAGATAAGCTATTATTTACATTGTTGGG,0.903
15,CGGTCCTCGCTCGCCCGAGCGCTGCTTCTC,-1.56
16,TGAGACTCAAGGCAAGTTGCTTCCACCTAT,-1.4
17,CTTGGCCTGCATAGCACTTTCATAACTTCT,-1.23
18,AGGTCAGAGTTGAACCCTTGGGGCTTTTGC,2.84
19,ATACAGATTTCATCTAAGGACAAACTTTGT,1.87
20,AGATACAGTTTGAAAAACACTGGATAAAGT,-1.27
